Drawing on ChEMBL document CHEMBL1157539, “Thousands of chemical starting points for antimalarial lead identification” (Nature, 2010), this text covers IFI for 25 compounds.

In all, about 13,000 compounds were measured (“IFI”: median about 4, highest 2% from about 17 on). The list shows a part of the results.

This experiment is described as follows: GSK_TCMDC: Inhibition Frequency Index (IFI). The number of non-kinase HTS assays where a compound showed > 50 % inhibition, expressed as a percentage of the number of such assays in which the compound was tested (-0 is zero). The experiment is classed as functional.
`Oc1ccccc1CNCC12CC3CC(CC(C3)C1)C2`: the IFI worked out at 0.72%.

Compound `O=C(/C=C/c1ccc(Cl)c(Cl)c1)NCCCCCN1CC[C@H](NC(=O)/C=C/c2ccccc2)C1` displayed an IFI of 5.3%.

`COc1ccc(NC(=O)c2ccc(C=Cc3ccc(C(F)(F)F)cc3)cc2)cc1N1CCN(C)CC1` had an IFI of 9.43%.

As to `N=C(N)Nc1nc(-c2cccc(NC(=O)NCCc3c[nH]c4ccc(OCc5ccccc5)cc34)c2)cs1`, the IFI is 5.38%.

With `Cc1cc(-c2cnc(N)c(-c3ccc(N4CCN(C)CC4)cc3)c2)cc(C)c1O`, the IFI was determined as 3.45%.

With `CN(CCCN(C)c1cc(NC(=O)c2cccc(F)c2)ccn1)Cc1cccc(O)c1`, the IFI was -0%.

`CCCCc1ccc(-c2c(N)nc(N)nc2CC)cc1` yielded an IFI of 3.65%.

In turn, `O=C(Nc1ccc(-c2csc(-c3nc4ccccc4[nH]3)c2)cc1)Nc1ccc(F)c(F)c1F` showed an IFI of 1.96%.

In the case of `CC[C@H](C)[C@H](NC(=O)[C@H](CC1CCCCC1)[C@H](CC)N(O)C=O)C(=O)Nc1ccccn1`, the IFI was 2.94%.

Compound `Cc1nc(N)nc(N)c1OCCCOc1ccccc1Br` showed an IFI of 3.03%.

In the case of `CN(C)c1ccc(-c2ccc(C(=O)NC3CCN(Cc4ccccc4)CC3)s2)cc1`, the IFI was determined as 5.45%.

For the compound `CCCC(=O)Nc1ccc(Cl)c(NC(=O)COc2cc(C)ccc2C(C)C)c1`, the IFI was found to be 1.39%.

The compound `O=C(Nc1ccc(OC(F)(F)F)cc1)NC1CCN(c2ccnc3ccccc23)CC1` showed an IFI of 10.4%.

The compound `Cc1[nH]c2ccccc2c1C(=O)CSc1nn(-c2ccccc2)c(=S)s1` showed an IFI of 0%.

Compound `CC(C)c1sc(N2CCN(C)CC2)nc1C(=O)NCCc1ccc(Cl)c(Cl)c1` registered an IFI of -0%.

In the case of `COc1cc(C=NNc2cc(C)nc3c(OC)cccc23)cc(OC)c1OC`, the IFI was 2.22%.

Compound `CC(C)(C)Nc1cc(C(=O)N[C@@H](Cc2ccccc2)[C@H](O)CNC2CCOCC2)cc(N2CCCCS2(=O)=O)c1` returned an IFI of 0%.

`Cc1cc(NC(=O)c2cc(Br)ccc2Cl)n(-c2nc(C)c(C)c(=O)[nH]2)n1`: the IFI came out at 9.8%.

Consider `COc1ccccc1NC(=O)Nc1ccc(-c2cccc(-c3nc4ccccc4[nH]3)c2)cc1`, for which the IFI turned out to be 4%.

On to `O=C1C2C3SC(c4c3ccc3ccccc43)C2C(=O)N1c1ccccc1` (stereo not given), for which the IFI came out at 1.52%.

`Cc1cc(CNC(=O)c2ccc(-c3ccc(-c4nc5cc(C(F)(F)F)ccc5[nH]4)s3)cc2)on1` yielded an IFI of 0.95%.

Take `CCCCCCNC(=N)c1ccc(OCCCCCOc2ccc(C(=N)NCCCCCC)cc2)cc1`: the IFI amounted to 12.3%.

The compound `CCCn1cnc2cc(C(=O)Nc3ccc(-c4cccc(CN(C)C)c4)cc3)ccc2c1=O` gave an IFI of 3.81%.

`Cc1cccc(C(=O)Nc2ccnc(N3CCC(N(C)Cc4cccc(O)c4)CC3)c2)c1` gave an IFI of 0%.

The compound `CO/C(=C\C=C\c1cc2cc(Cl)c(Cl)cc2[nH]1)C(=O)NC1CC2CCC(C1)N2C` (stereo not given) registered an IFI of 16.4%.
